From the RNAGym collection of RNA variant scans (doi:10.1073/pnas.2313332121)
Variants at the floor of the assay are shown more often than the library holds them.

B1: TPR 5TU (parent)
chain: GGAUCUUCUCGAUCUAACAAAAAAGACAAAUCUGCCACAAAGCUUGAGAGCAUCUUCGGAUGCAGAGGCGGCAGCCUUCGGUGGCGCGAUAGCGCCAACGUUCUCAACUAUGACACGCAAAACGCGUGCUCCGUUGAAUGGAGUUUAUCAUG

Variants of: B1
Assay: polymerase ribozyme fitness, log enrichment relative to wild type (log ratio); higher = more active; in vitro selection for triplet polymerase activity
How it was run: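 After PCR construction and transcription, each subunit's mutant library from a heterodimeric triplet polymerase ribozyme was annealed with a biotinylated primer, the partner subunit and triplets. Incubation was frozen, at −7 °C, and extended constructs were gel-excised, bound to streptavidin beads and amplified by RT-PCR, in one selection round done in triplicate. Fitness is the logarithm of a genotype's enrichment divided by that of the wild type, from inverse-variance-weighted replicate averages of Illumina-sequenced inputs and outputs. The base of the logarithm is 2, and genotypes needed ≥10 input reads and ≥1 read per output.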

With GGAUCUUCUCGAUCUAACAAAAAAGACAAAUCUGCCACAAAGCUUGAGAGCAUCUUCGGAUGCAGAGGCGGCAGCCUUCGGUGGGGCGAUAGCGCCAAGGUUCUCAACUAUGACACGCAAAACGCGUGCUCCGUUGAAUGGAGUUUAUCAUG as the variant, how does the “polymerase ribozyme fitness (log ratio)” value read?
The value was -4.1.

With GGAUCUUCUCGAUCUAACAAAAAAGACAAAUCUGCCACAAAGCUUGAGAGCAUCUUCGGAUGCAGAGGCGGCAGCCUUCGGUGGGGCGAUAGCGCUAACGUUCUCAACUAUGACAAGCAAAACGCGUGCUCCGUUGCAUGGAGUUUAUCAUG as the variant, how does the “polymerase ribozyme fitness (log ratio)” value read?
The value was no more than -4.2.

With GGAUCUUCUCGAUCUAACAAAAAAGACAAAUCUGCCACAAAGCUUGAGAGCAUCUUCGGAUGCAGAGGCGGCAGCCUUCGGUGGGGGGAUAGCGCCAUCGUUCUCAACUAUGACACGCAAAACGCGUGCUCCGUUGGAUGGAGCUUAUCAUG as the variant, how does the “polymerase ribozyme fitness (log ratio)” value read?
The value was no more than -4.2.

Which “polymerase ribozyme fitness (log ratio)” value does the source give for GGAUCUUCUCGAUCUAACAAAAAAGACAAAUCUGCCACAAAGCUUGAGAGCAUCUUCGGAUGCAGAGGCGGCAGCCUUCGGUGGGGCGAUAGCGCCAAGGUUCUCAACUAUGACACGCAAAACGCGUGCUCCUUUGAAUGGAGUUUAUCAUG here?
The value was no more than -4.2.

For GGAUCUUCUCGAUCUAACAAAAAAGACAAAUCUGCCACAAAGCUUGAGAGCAUCUUCGGAUGCAGAGGCGGCAGCCUUCGGUGGGGUGAUAGCGCCAACGUUCUCAACUAUGACACGCAAAACGCGUGCUCCGUUGAAUGGAGUAUAUCAUG, which “polymerase ribozyme fitness (log ratio)” value is on record?
Its value is -2.77.

For GGAUCUUCUCGAUCUAACAAAAAAGACAAAUCUGCCACAAAGCUUGAGAGCAUCUUCGGAUGCAGAGGCGGCAGCCUUCGGUGGGGCGAUUGCGCCAACGUUCUCAACUAUGACACGCAAAACGCGCGCUCCGUUGAAUGGAGUUUAUCAUG, which “polymerase ribozyme fitness (log ratio)” value is on record?
Its value is no more than -4.2.

For GGAUCUUCUCGAUCUAACAAAAAAGACAAAUCUGCCACAAAGCUUGAGAGCAUCUUCGGAUGCAGAGGCGGCAGCCUUCGGUGGAGCGAUAGCGCCAACGUUCUCAACUAUGACACGCAAAACGCGUGCUCCGUUGAAUGGAGUUUAUCAGG, which “polymerase ribozyme fitness (log ratio)” value is on record?
Its value is no more than -4.2.

With GGAUCUUCUCGAUCUAACAAAAAAGACAAAUCUGCCACAAAGCUUGAGAGCAUCUUCGGAUGCAGAGGCGGCAGCCUUCGGUGGGGCGAUAGCGCCAACGUUCUCCACUAUGACACGCAAAACGCGUGCUCCGUUGAAUGUAUUUUAUCAAG as the variant, how does the “polymerase ribozyme fitness (log ratio)” value read?
The value was no more than -4.2.

With GGAUCUUCUCGAUCUAACAAAAAAGACAAAUCUGCCACAAAGCUUGAGAGCAUCUUCGGAUGCAGAGGCGGCAGCCUUCGGUGGGGUGAUAGCGCCAACGUUCUCUACUAUGACACACAAAACGCGUGCUCCGUUGACUGGAGUUUAUCAUU as the variant, how does the “polymerase ribozyme fitness (log ratio)” value read?
The value was no more than -4.2.

For GGAUCUUCUCGAUCUAACAAAAAAGACAAAUCUGCCACAAAGCUUGAGAGCAUCUUCGGAUGCAGAGGCGGCAGCCUUCGGUGGGGCGAUAGCGCAAACGUUCUCUACUAUGACACGAAAAACGCGUUCUCCGUUGAAUGGAGUUUAUCAUG, which “polymerase ribozyme fitness (log ratio)” value is on record?
The value was no more than -4.2.

Which “polymerase ribozyme fitness (log ratio)” value does the source give for GGAUCUUCUCGAUCUAACAAAAAAGACAAAUCUGCCACAAAGCUUGAGAGCAUCUUCGGAUGCAGAGGCGGCAGCCUUCGGUGGGGCGAUAGCGCCAACGUUCUCAACUAUGACACGCAAAGCGCGUGCUCCGUUGAAUGGAGUUUAUAAUG here?
The value was no more than -4.2.

With GGAUCUUCUCGAUCUAACAAAAAAGACAAAUCUGCCACAAAGCUUGAGAGCAUCUUCGGAUGCAGAGGCGGCAGCCUUCGGUGGAGCGAUAGCGCCAACGUUCUCAACUAUGACACGCAAAACGCGUGCACCGUUGAAUGGAGUUUAUCAUG as the variant, how does the “polymerase ribozyme fitness (log ratio)” value read?
The value was -2.45.

With GGAUCUUCUCGAUCUAACAAAAAAGACAAAUCUGCCACAAAGCUUGAGAGCAUCUUCGGAUGCAGAGGCGGCAGCCUUCGGUGGGGCGAUAGCGCUAACGUUCUCAACUAUGUCACGCAAAACGCGUGCUCCGUUGAAUGGAGUUUAUCAUG as the variant, how does the “polymerase ribozyme fitness (log ratio)” value read?
The value was -3.8.

Which “polymerase ribozyme fitness (log ratio)” value does the source give for GGAUCUUCUCGAUCUAACAAAAAAGACAAAUCUGCCACAAAGCUUGAGAGCAUCUUCGGAUGCAGAGGCGGCAGCCUUCGGUGGGGCGAUAGCGCCAACGUUCUCAACUAUGCCACGCAAAACGCGUGCCUCGUUGAAUGGAGUUUAUCAUG here?
Its value is no more than -4.2.

For GGAUCUUCUCGAUCUAACAAAAAAGACAAAUCUGCCACAAAGCUUGAGAGCAUCUUCGGAUGCAGAGGCGGCAGCCUUCGGUGGGGCGAUAGCGCCAACGUUCUCAACUAUGACACGCAAAUAGCGUGCUCCGUUGAAUGGAGUUUAUCAUG, which “polymerase ribozyme fitness (log ratio)” value is on record?
Its value is -2.3.

With GGAUCUUCUCGAUCUAACAAAAAAGACAAAUCUGCCACAAAGCUUGAGAGCAUCUUCGGAUGCAGAGGCGGCAGCCUUCGGUGGGGCGAUAGCGCCAACGUUCUCGACUAUGACACGUGAAACGCGUGCUCCGUUGAAUGGAAUUUAACAUG as the variant, how does the “polymerase ribozyme fitness (log ratio)” value read?
Its value is no more than -4.2.

Which “polymerase ribozyme fitness (log ratio)” value does the source give for GGAUCUUCUCGAUCUAACAAAAAAGACAAAUCUGCCACAAAGCUUGAGAGCAUCUUCGGAUGCAGAGGCGGCAGCCUUCGGUGGGGCGGUAGCGCUAACAUUCUCAACUAUGACACGCAAAACGCGUGCUCCGUUGAAUGGAGUUUAUCAUG here?
Its value is no more than -4.2.

Which “polymerase ribozyme fitness (log ratio)” value does the source give for GGAUCUUCUCGAUCUAACAAAAAAGACAAAUCUGCCACAAAGCUUGAGAGCAUCUUCGGAUGCAGAGGCGGCAGCCUUCGGUGGGGCGAUAGCGCCAACGUUCUCAACUAUGACACGCAAAACGCGUGCUCCGUUGAAUGGAGUUUUUCAUG here?
Its value is -0.872.

With GGAUCUUCUCGAUCUAACAAAAAAGACAAAUCUGCCACAAAGCUUGAGAGCAUCUUCGGAUGCAGAGGCGGCAGCCUUCGGUGGGGCGAUAGCGCAAACGUGCUCAACUAUGACACGCAAAUCGCGUGCUCCGUUGAAUGGAGUUUAUCAUG as the variant, how does the “polymerase ribozyme fitness (log ratio)” value read?
The value was no more than -4.2.
